In patent publication US20070059320A1 (HOSPITAL FOR SICK CHILDREN, published 2007):

Target: non-receptor tyrosine kinase Src, native protein in brain lysates, PSD preparations, hippocampal neurons and … (rat, UniProt Q9WUD9)
Assay: GST pull-down from PSD preparations, immunoblot

B1: GST alone (other)
chain: not shown
notes: Negative control
- binding result: no binding
